# Experimental data published in article PMC12040169 (PLOS Biology, 2025).
# The list shows a part of the results.
# Tested on: T1, C. trachomatis L2/434/Bu expressing GFP (CTL2-GFP)
# T1 construct: L2/434/Bu GFP intracellular growth in HeLa cells
# Design: species or system HeLa; C. trachomatis total inclusion area by high-content imaging, normalised to DMSO
# Settings: total inclusion area; 28.5 h, 10 µM; inhibitor
# Summary of the method: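 Following bulk GFP and resorufin fluorescence reads, infected cells were fixed, Hoechst-stained and imaged on a high-content platform. Inclusion total area and number per well served as growth proxies; nuclei counts indicated host viability. MICs were derived as for the fluorescence assay.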
row,SMILES,% of control remaining
1,CCOC(=O)N/N=C1\CCSc2sccc21 [CBK006300],46.1681
2,Cc1ncc(S(=O)(=O)N2CCC(OCc3ccncc3)C2)s1 (stereo not shown) [CBK305483],94.4097
3,Clc1ccc(SCCCSc2ncccn2)cc1 [CBK266400],121.645
4,O=C(O)C(CC1COc2ccccc2O1)C(=O)O (stereo not shown) [CBK276280],107.272
5,COC(=O)c1cn([C@H]2CO[C@H]3[C@@H]2OC[C@@H]3NS(=O)(=O)Cc2ccccc2)nn1 [CBK289498],105.39
6,CCOC(=O)C1CCCCN1Cc1ccc(OC)c(O)c1 (stereo not shown) [CBK261560],102.848
7,O=C(NCCc1c[nH]cn1)NC12CC3CC(CC(C3)C1)C2 [CBK269880],74.4795
8,O=C(C[C@@H]1CCNC[C@@H]1Cc1cc(-c2ccccc2)on1)NC1CC1 [CBK289146],96.1839
9,CC(=O)[C@H]1C[C@@H](CC(=O)N2CCN(c3ccc(C(F)(F)F)cc3)CC2)C1(C)C [CBK091330],112.843
10,CNC(=O)c1ccc(-c2cnc(NCC3CCN(C(=O)OC(C)(C)C)CC3)cn2)cc1 [CBK173726],131.496
11,COc1ccc(-c2nc(NC(=O)CSc3n[nH]c(N)n3)ns2)cc1 [CBK267236],120.902
12,CCCNc1nc(-c2cccc(O)c2)cn2ccnc12 [CBK066395],61.3109
13,CCOC(=O)c1sc(NS(=O)(=O)c2cccc3cccnc23)nc1C [CBK047443],88.0075
14,COc1ccc(-c2ccc(OC)cc2C(=O)Nc2ccc3c(c2)N(C)C(=O)CO3)cc1 [CBK285650],82.9736
15,Fc1ccccc1COc1cccc(CNCc2ccccn2)c1 [CBK268552C],101.963
16,O=[N+]([O-])c1ccc(/C=N/c2ccc(Cc3ccc(/N=C/c4ccc([N+](=O)[O-])s4)cc3)cc2)s1 [CBK261228],105.054
17,Cc1cc(S(=O)(=O)NCCn2nc(C)c(C)c2C)ccc1F [CBK281382],106.162
18,O=C(O)COc1ccccc1/C=N/n1c(S)nnc1-c1cccnc1 [CBK265337],107.214
19,COc1cc(NC(=O)C2CCN(S(=O)(=O)c3cccs3)CC2)c(Cl)cc1C(=O)O [CBK297085],83.6268
20,O=c1cc(N2CCCCC2)cnn1CCCn1cccn1 [CBK306907],119.616

row,SMILES,% of control remaining
1,CC1CCc2sc(C(=O)N3CCC4(CC3)NC(=O)NC4=O)cc2C1 (stereo not shown) [CBK304992],58.191
2,O=C(Cn1cc(Br)ccc1=O)NC1CCN(CCc2ccccc2)CC1 [CBK305887],37.775
3,CCCC/C=C/c1cncc(N2CCN(c3ccccc3C#N)CC2)n1 [CBK037369],90.5825
4,O=C(NNC(=O)C(O)c1ccccc1)NC1CCCCC1 (stereo not shown) [CBK262625],95.5762
5,N#Cc1ccc(OCC(=O)Nc2ncccn2)cc1 [CBK304578],33.6082
6,CCCCCC(=O)Nc1c(C)cc(Br)cc1C [CBK058159],67.7953
7,O=C(NCCc1ccccc1)NCCc1cccs1 [CBK045154],105.602
8,Cc1cccc2cnc(C3CCN(C(=O)CCc4ccno4)CC3)cc12 [CBK285197],75.5392
9,O=C(CCNC(Cc1ccccc1)C(=O)O)c1ccccc1 (stereo not shown) [CBK286655],66.2121
10,O=C(N/N=C/c1ccc[nH]1)C1CC1c1ccccc1 (stereo not shown) [CBK022120],70.8449
11,COc1ccccc1C(=O)NCCCc1nc2ccccc2[nH]1 [CBK269837],86.7273
12,COc1ccc(-c2nc(NC3CCCCC3)c3ccccc3n2)cc1 [CBK058109],84.0126
13,NCCNCCCCOc1ccc(Cl)c(Cl)c1 [CBK265059],83.7632
14,COc1ccc(S(=O)(=O)Nc2cc(C(=O)O)ccc2C)cc1NC(C)=O [CBK296946],52.4501
15,O=C1C2C3C=CC(C3)C2C(=O)N1CCN1CCN(S(=O)(=O)/C=C/c2ccccc2)CC1 (stereo not shown) [CBK263663],110.72
16,Cc1cc(CNS(=O)(=O)c2sc3ccc(C(C)C)cc3c2C)no1 [CBK170353],121.349
17,CCn1cc(CN2CCCN(C(=O)c3cn4ccccc4n3)CC2)cn1 [CBK304784],74.3652
18,CNCC(=O)N[C@H]1CCN2C(=O)c3ccc(Cl)cc3NC(=O)[C@@H]2C1 [CBK289566],86.3028
19,O=[N+]([O-])c1ccc(CN2CCN(Cc3cc(Br)ccc3O)CC2)cc1 [CBK263652G],81.8303
20,N#Cc1c(NC(=O)CN2CCN(Cc3ccccc3)CC2)sc2c1CCCC2 [CBK267969],83.6835
